The whole screen tested about 310,000 compounds, of which about 18,000 (5.8%) were called active. Inconclusive means that the source gave no clear call. Such entries were picked first, then a sample of the others. Calls follow the shape of the dose curve; as a rule, active = well fitted inhibition curve with a large enough effect; inconclusive = small, poorly fitted or top-dose-only effect, or another doubt; inactive = no such curve, though single readings can be large or run the other way. No potency is given beside an inconclusive call; the fits are too rough.
Assay: Primary qHTS for delayed death inhibitors of the malarial parasite plastid, 48 hour incubation
Conditions: P. falciparum luciferase growth in erythrocytes; series mostly up to 28.7 µM
In short: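 Luminescence readout; reporter = integrated firefly luciferase in P. falciparum. RBC culture at 2% hematocrit, 0.1% parasitemia final, 37 C/5% CO2; decreased signal taken as growth inhibition.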
Potency is read from the fitted curve at half-maximal effect; tags tell the direction and shape of the fitted curve.

Row | Compound | Potency
1 | O=C(Nc1cccc2ccccc12)C12CC3CC(C1)CC(n1cnc([N+](=O)[O-])n1)(C3)C2 | inconclusive [inhibitor, single point]
2 | COc1cc(CN2CCCC(C(=O)c3ccc(SC)cc3)C2)cc(Cl)c1O (stereo not drawn) | active: 11.7 µM
3 | Cc1ccc(C)n1-c1ccc(-n2cnnn2)cc1 | inconclusive [inhibitor, single point]
4 | Fc1ccccc1N1CCN(c2nnnn2-c2ccccc2)CC1 | inconclusive [inhibitor, single point]
5 | CCOc1ccc(N(CC(=O)Nc2ccc(C)c(F)c2)C2=NC3CS(=O)(=O)CC3S2)cc1 (stereo not drawn) | inconclusive [inhibitor, single point]
6 | CCOC(=O)Cc1nnc(-c2ccccc2)o1 | inactive
7 | O=C(c1ccccc1)c1ccc(OCC(O)CN2CCCCC2)cc1 (stereo not drawn) | inconclusive [inhibitor, partial curve]
8 | O=C(NCc1ccco1)c1cc(-c2cccnc2)nc2ccc(Cl)cc12 | active: 10.4 µM
9 | CCOc1ccc(C(=O)NCC2CCCN2S(=O)(=O)c2cccs2)cc1 (stereo not drawn) | inconclusive [inhibitor, single point]
10 | CN(C(=O)COC(=O)C1CCN(S(=O)(=O)c2c(Cl)cccc2Cl)CC1)C1CCCCC1 | inconclusive [inhibitor, single point]
11 | Cc1nc2c(cc(Oc3ccc(S(=O)(=O)N4CCOCC4)cn3)c3ccsc32)s1 | inconclusive [inhibitor, single point]
12 | COc1ccccc1CNC(=O)CCCc1nnc2n(C)c(=O)c3sccc3n12 | inactive
13 | CC(=O)c1ccc(N2CCN(S(=O)(=O)c3ccc(-c4cnc(C5CC5)o4)cc3)CC2)cc1 | inconclusive [inhibitor, partial curve]
14 | COc1cc(C(=O)Nc2ccc(N3CCOCC3)cc2)ccc1OCc1c(C)noc1C | inconclusive [inhibitor, partial curve, poor fit]
15 | COc1cc2c(cc1OC)-c1c(OC)c(OC)c(OC)c3ccnc(c13)C2=O | inconclusive [inhibitor, single point]
16 | OC1(C#CCCN2CCCCC2)c2ccccc2-c2ccccc21 | inconclusive [inhibitor, single point]
17 | CN(C)c1ccc(N=Nc2ccccc2C(=O)OCC(=O)Nc2ccccc2C(F)(F)F)cc1 | inconclusive [inhibitor, single point]
18 | Oc1ccc(C(=C(Cl)Cl)c2ccc(O)cc2)cc1 | active: 2.94 µM
